What is called % Inhibition is the change of the read-out against control, counted positive when it falls.

Data on 42 compounds can be found in ChEMBL document CHEMBL4888484, “Replenishing the malaria drug discovery pipeline: Screening and hit evaluation of the MMV Hit Generation Library 1 (HGL1) against asexual blood stage Plasmodium falciparum ,using a nano luciferase reporter read-out” (2022).

About 540 (0.36%) of roughly 150,000 compounds showed an effect of 50% or more. This is one part of the list.

The test relates to Plasmodium falciparum. As to the kind of experiment: Primary screen in NF54 nanoGlo assay, in single point, at 2uM, 72h; a lower Z score goes with more inhibition. Format: functional, Erythrocyte. Conditions: timepoint 72 hour.
On to `N[C@H]1CN(C(=O)c2ccc3c(c2)OCCCO3)C[C@@H]1c1ccccc1F`, for which the “% Inhibition” value is given as -3% and the Z score is given as 0.65.

Turning to `CC(C)C[C@@H]1NC2(CCN(S(=O)(=O)c3cccc(Cl)c3Cl)CC2)N(C2CC2)C1=O`, the “% Inhibition” value was -9% and the Z score is 1.24.

In the case of `CCOC(=O)C(=O)Nc1ccc(Cl)c(C(F)(F)F)c1`, the “% Inhibition” value was -28% and the Z score was determined as 3.27.

As to `Cc1cccc(C(=O)NCCOc2ccccc2F)n1`, the “% Inhibition” value is -4% and the Z score came to 0.75.

For the compound `C=CCC[C@H](O)CN(Cc1ccco1)Cc1c(C)nn(-c2ccccc2)c1Oc1ccc(F)cc1F`, the “% Inhibition” value is reported as -7% and the Z score was determined as 1.18.

`Fc1cccc(-c2nc(-c3cnccn3)no2)c1`: the “% Inhibition” value was 6% and the Z score is reported as -0.66.

With `COc1ccc(NC(=O)CCc2c(-c3ccc(C)cc3)nc3ccc(-c4cccc(C)c4)cn23)cc1`, the “% Inhibition” value is reported as 6% and the Z score is -0.91.

In the case of `Cc1cc(C)cc(N[C@@H](C)C(=O)Nc2nnc(C)s2)c1`, the “% Inhibition” value is recorded as -29% and the Z score is 3.42.

Turning to `CCCCN(CC(N)=O)CC(=O)N1CCO[C@@H](C)C1`, the “% Inhibition” value is 0% and the Z score is recorded as -0.05.

As for `C[C@H]1CCS(=O)(=O)CCN1Cc1ccc(-n2cccn2)cc1`, the “% Inhibition” value is -10% and the Z score was found to be 1.84.

As to `Cc1cc(C)n(-c2ccc(Cn3cnc4c(c3=O)CCC4)cc2)n1`, the “% Inhibition” value was -8% and the Z score is 1.2.

Consider `CC(C)C[C@H](C)OC(=O)N(C)Cc1nnc2n1CCNC2=O`, for which the “% Inhibition” value is -19% and the Z score was determined as 3.

With `CCO[C@@H](C)c1nc(CN(C)C(=O)c2ccc(C)o2)cs1`, the “% Inhibition” value is -5% and the Z score was 0.85.

For `CCCC(=O)Nc1nc2ncccc2cc1C(=O)OCC`, the “% Inhibition” value was -5% and the Z score worked out at 0.44.

For `Cc1cc(Br)oc1C(=O)N1CC[C@@](F)(C(=O)O)C1`, the “% Inhibition” value is -6% and the Z score was found to be 0.76.

Consider `CN(C)CC[C@@H](c1ccccc1)n1ccnc1-c1ccco1`, for which the “% Inhibition” value turned out to be 4% and the Z score is reported as -0.58.

In the case of `Cc1ncc(C(=O)N2CCC(Cc3nccn3C)CC2)c(C)n1`, the “% Inhibition” value is listed as -3% and the Z score was 0.61.

`O=C(NC(N1CCCC1=O)(C(F)(F)F)C(F)(F)F)c1ccco1`: the “% Inhibition” value amounted to 41% and the Z score was -4.68.

On to `O=C1CN(C(=O)Nc2ccc3c(c2)OC2(CCCCC2)O3)CCN1`, for which the “% Inhibition” value is given as -3% and the Z score amounted to 0.34.

`Cc1noc(C)c1CN(C)Cc1ncc(Cl)n1C`: the “% Inhibition” value was -2% and the Z score turned out to be 0.21.

As for `NC(=O)C(NC1CCc2cc(F)ccc21)c1ccccc1` (centres undefined), the “% Inhibition” value was -11% and the Z score is 2.12.

Regarding `CCn1nccc1C(=O)N[C@H]1CCN(c2ncnc3c2CCC3)C1`, the “% Inhibition” value is reported as -10% and the Z score is reported as 1.74.

On to `COc1ccc(C)cc1S(=O)(=O)NC1Cc2ccccc2C1O` (centres undefined), for which the “% Inhibition” value is -12% and the Z score amounted to 1.02.

Take `Clc1ccc(CN2CCN(c3nc4ccccc4c4nnc(-c5ccco5)n34)CC2)cc1`: the “% Inhibition” value is recorded as 13% and the Z score is listed as -1.39.

Regarding `Cc1cc(C)nc(/N=C(/NC(=O)c2ccccc2)N2CCC(C(N)=O)CC2)n1`, the “% Inhibition” value is given as -8% and the Z score was 1.13.

`N#Cc1cnc2ccc(F)cc2c1N1CCC(C(=O)Nc2ccc(Cl)cc2)CC1`: the “% Inhibition” value is listed as -8% and the Z score is 1.17.

With `COc1ccc(OC)c(S(=O)(=O)N2C[C@H]3CCCC(=O)N[C@H]3C2)c1`, the “% Inhibition” value came out at 36% and the Z score is reported as -0.83.

Take `CCN1CCN(C2(C(=O)N3CCC(COC)CC3)Cc3ccccc3C2)CC1`: the “% Inhibition” value is reported as -5% and the Z score is given as 0.79.

Consider `Cc1nn(CC(=O)N2CCc3ncccc3C2)c(=O)n1CCc1ccccc1`, for which the “% Inhibition” value was -4% and the Z score amounted to 0.68.

For the compound `CC1(C)COCN1C(=O)c1ccc(C#N)cc1`, the “% Inhibition” value was -5% and the Z score worked out at 0.61.

Regarding `COC[C@H](NC(=O)NCCN1CCN(C)C(C)(C)C1)C1CC1`, the “% Inhibition” value worked out at 6% and the Z score is reported as -0.82.

Take `O=C(Cn1nnc2ccccc21)c1ccccc1`: the “% Inhibition” value was -12% and the Z score was 1.78.

In the case of `COc1ccc2c(c1)CCc1c(C(=O)Nc3ccc4nc(NS(C)(=O)=O)sc4c3)n[nH]c1-2`, the “% Inhibition” value is on record as 1% and the Z score is reported as -0.06.

Turning to `Cc1cc(N[C@H](c2nc(C)cs2)C2CC2)nc(C)n1`, the “% Inhibition” value is -2% and the Z score is 0.25.

Consider `COCC1(CNS(=O)(=O)c2ccc(NS(=O)(=O)N(C)C)cc2)CCC1`, for which the “% Inhibition” value is on record as -3% and the Z score stood at 0.34.

Turning to `O=C(N[C@H]1CCc2nccn2C1)c1cc2ccccc2o1`, the “% Inhibition” value is listed as 4% and the Z score is reported as -0.58.

As for `CCc1sc(C(=O)N[C@H](CO)CN2CCCC2)cc1C`, the “% Inhibition” value is on record as -8% and the Z score is on record as 0.91.

In the case of `Cc1c(CN2CCC([C@H](Cc3ccccc3Cl)N(C)C(=O)c3ccco3)CC2)cnn1C`, the “% Inhibition” value is -1% and the Z score turned out to be 0.14.

For the compound `O=C1c2c(c3cc(Cl)ccc3n2Cc2ccccc2)CCC1(Cc1ccccc1)Cc1ccccc1`, the “% Inhibition” value is -26% and the Z score came out at 3.37.

`Cc1c(C(=O)NC[C@@H]2CC[C@H](C)N2C)nnn1C(C)C`: the “% Inhibition” value worked out at 3% and the Z score is on record as -0.61.

As to `CCc1nc(-c2cc(C(F)F)n[nH]2)n(Cc2ccccc2Cl)n1`, the “% Inhibition” value is given as -9% and the Z score was found to be 1.82.

As for `Cc1nc2ncccn2c1C(=O)NC(Cc1ccccn1)[C@H]1C[C@H](O)C1` (some centres undefined), the “% Inhibition” value is recorded as -12% and the Z score was 1.42.
